Assay results published in the supplement of paper PMC4967469.
pIC50: −log10 of the molar value. The IC50 comes from the fitted curve, where viability falls to half of the control; fits outside the tested doses are given as limits. For AUC the same curve is integrated over the 256-fold range of doses and scaled to a fraction: 1 means no effect, lower means more sensitive. For part of these data: An inferred top dose comes from the curve model; the source does not state it. For part of these data: Drugs with an entry number were screened twice under separate entries, and the two screens often disagree.

Tests used:
Assay in all cases: Viability of human cancer cell lines after 72 h of drug (GDSC screen)
[1] = compound: C/C(O)=C(\C#N)C(=O)Nc1cc(Br)ccc1Br [LFM-A13]; conditions: top dose 16 µM; top dose inferred
Procedure: (§1)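 Human cancer cell lines in 384-well plates, medium with 10% serum, drug for 72 h over a 256-fold dose range (nine 2-fold or five 4-fold steps up to the top dose). Adherent lines were fixed and stained with the nucleic acid dye Syto60, suspension lines read with resazurin; signal relative to control wells, capped at 0 and 100%. One two-parameter sigmoid per drug and line, fitted in a mixed model over all curves with the slope shared within a line.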

[2] = compound: CC(C)c1ccccc1Cc1cc(C(=O)Nc2ccc(S(=O)(=O)c3ccccc3C(C)(C)C)cc2)c(O)c(O)c1O [TW-37]; conditions: top dose 5 µM
Procedure: as §1

[3] = compound: CC(O)(CS(=O)(=O)c1ccc(F)cc1)C(=O)Nc1ccc(C#N)c(C(F)(F)F)c1 [Bicalutamide]; conditions: top dose inferred
Procedure: as §1

[4] = compound: CCNC(=O)c1noc(-c2cc(C(C)C)c(O)cc2O)c1-c1ccc(CN2CCOCC2)cc1 [AUY922]; conditions: top dose 0.256 µM; top dose inferred
Procedure: as §1

[5] = compound: Cc1ccc(Nc2cc(-c3cccc(N4C(=O)c5ccccc5C4=O)c3)ncn2)cc1NS(C)(=O)=O [KIN001-270]; conditions: top dose 20 µM; top dose inferred
Procedure: as §1

[6] = compound: Cc1cn(-c2cc(NC(=O)c3ccc(C)c(Nc4nccc(-c5cccnc5)n4)c3)cc(C(F)(F)F)c2)cn1 [Nilotinib]; conditions: top dose 2 µM
Procedure: as §1

[7] = compound: Nc1ccn([C@@H]2O[C@H](CO)[C@@H](O)C2(F)F)c(=O)n1 [Gemcitabine]; conditions: top dose 1.024 µM
Procedure: as §1

[8] = compound: O=S(=O)(c1ccccc1)N(CC(F)(F)F)c1ccc(C(O)(C(F)(F)F)C(F)(F)F)cc1 [T0901317]; conditions: top dose 10.24 µM; top dose inferred
Procedure: as §1

[9] = compound: S=C(NCc1ccc2c(c1)OCO2)N1CCN(c2ncnc3c2oc2ccccc23)CC1 [MP470]; conditions: top dose 20 µM; top dose inferred
Procedure: as §1

[10] = top dose 1.024 µM, screen: GDSC drug entry 150
[11] = top dose 10 µM, screen: GDSC drug entry 1502

Cell Line | AUC [1] | pIC50 [1] | AUC [2] | pIC50 [2] | AUC [3, 10] | pIC50 [3, 10] | AUC [3, 11] | pIC50 [3, 11] | AUC [4] | pIC50 [4] | AUC [5] | pIC50 [5] | AUC [6] | pIC50 [6] | AUC [7] | pIC50 [7] | AUC [8] | pIC50 [8] | AUC [9] | pIC50 [9]
WM793B (melanoma, adherent) | 0.963 | < 4.80 | 0.514 | 6.47 | 0.984 | < 5.99 | 0.958 | < 5.00 | 0.281 | 8.45 | 0.972 | < 4.70 | 0.956 | < 5.70 | 0.241 | 7.98 | 0.982 | < 4.99 | 0.974 | < 4.70
WM1552C (melanoma, adherent) | 0.981 | < 4.80 | 0.687 | 5.98 | 0.988 | < 5.99 | 0.981 | < 5.00 | 0.578 | 7.58 | 0.984 | < 4.70 | 0.987 | < 5.70 | 0.066 | > 8.40 | 0.984 | < 4.99 | 0.966 | < 4.70
YAPC (pancreas, adherent) | 0.943 | < 4.80 | 0.608 | 6.17 | 0.985 | < 5.99 | 0.96 | < 5.00 | 0.892 | < 6.59 | 0.985 | < 4.70 | 0.983 | < 5.70 | 0.983 | < 5.99 | 0.976 | < 4.99 | 0.947 | < 4.70
YKG-1 (glioma, adherent) | 0.986 | < 4.80 | 0.351 | 6.92 | 0.987 | < 5.99 | 0.973 | < 5.00 | 0.423 | 8.01 | 0.955 | < 4.70 | 0.97 | < 5.70 | 0.15 | 8.29 | 0.984 | < 4.99 | 0.884 | < 4.70
huH-1 (liver, adherent) | 0.98 | < 4.80 | 0.536 | 6.40 | 0.984 | < 5.99 | 0.982 | < 5.00 | 0.984 | < 6.59 | 0.984 | < 4.70 | 0.971 | < 5.70 | 0.799 | 6.20 | 0.984 | < 4.99 | 0.931 | < 4.70
no-10 (glioma, adherent) | 0.965 | < 4.80 | 0.504 | 6.49 | 0.98 | < 5.99 | 0.968 | < 5.00 | 0.612 | 7.46 | 0.961 | < 4.70 | 0.982 | < 5.70 | 0.598 | 6.90 | 0.976 | < 4.99 | 0.953 | < 4.70
